# Columns and labels:
# [1] = system: 5′UTR sequence of the C9orf72 locus present in the GFP-TK reporter; assay: Ganciclovir survival of GFP-TK-c10 K562 reporter cells, arrayed lentiviral transduction (Example 3); settings: dXR with ZNF10-KRAB and guide 174, 5 μg/mL ganciclovir for 5 days
# Description: (§1) Specifically, TK metabolizes the typically inert pro-drug ganciclovir into a toxic thymidine analog that leads to cell death. The nucleofected cells were selected in hygromycin for 1 month, sorted to single cells and characterized for ganciclovir sensitivity.
# GFP-TK-c10 cells were transduced (250,000 cells: 6-well format) with lentiviruses encoding dXR molecule containing the ZNF10-KRAB domain and gRNA with scaffold 174 (SEQ ID NO: 2238) and spacers targeting the 5′UTR sequence of the C9orf72 locus present in the GFP-TK reporter (Table 16). Transductions were carried out in an arrayed fashion in which one lentivirus was applied to one well of cells. 48 hours after transduction, cells were treated with 5 μg/mL ganciclovir for 5 days and then stained with trypan blue and counted on an automated cell counter.
# [2] = system: 5′UTR sequence of the C9orf72 locus present in the GFP-TK reporter; assay: Lentivirus competition experiments, spacer fitness by NGS before and after ganciclovir (Example 3, Table 18); settings: GFP-TK-c10 cells, mixed lentiviruses at equal ratio, 5 days 5 μg/mL ganciclovir
# Protocol: as §1
# Separately, cells were transduced (250,000 cells; 6-well format) with multiple virus combinations at defined ratios (Table 17). 48 hours post-transduction, half of the cells in each well were harvested and frozen as cell pellets, and the other half were selected in the same manner (5 days; 5 μg/mL ganciclovir). After ganciclovir selection the remaining cells were harvested and gDNA was extracted from both pre- and post-ganciclovir treatment samples. Primers flanking the region containing the spacer sequence in the lentivirus constructs were used to generate amplicons for next generation sequencing analysis in which the ratios of the spacers in each well were compared pre- and post-selection. These ratios were used to calculate spacer fitness scores for each competition by taking the log 2 of the fold change in the spacer frequency from pre-selection to post-selection. Fitness was determined by the following equation: […]
Substance,cell survival after ganciclovir treatment [1],spacer fitness in competitions (in words) [2]
"Spacer 1: gRNA spacer targeting the C9orf72 5′UTR, used with dXR (ZNF10-KRAB) and guide 174 (guide CGTAACCTACGGTGTCCCGC; chemistry not fully specified)",permitted cell survival,–
"Spacer 2: gRNA spacer targeting the C9orf72 5′UTR, used with dXR (ZNF10-KRAB) and guide 174 (guide TAGCGGGACACCGTAGGTTA; chemistry not fully specified)",permitted cell survival,measurably more potent than Spacer 1 in all competitions
"Spacer 3: gRNA spacer targeting the C9orf72 5′UTR, used with dXR (ZNF10-KRAB) and guide 174 (guide CUUUUGGGGGCGGGGUCUAG; listed as RNA, chemistry not fully specified)",resulted in cell death,ineffective in almost all competitions
